± gives the standard deviation. Over roughly 5,500 sequences, “pre-steady-state target cleavage rate” has its median near 0.1; the highest 2% begin near 0.64. Only a part is listed here, and it is no random draw.

This assay relates to MIWI (PIWIL1) piRISC loaded with piRNA #2 (30 nt). The assay can be described thus: pre-steady-state target cleavage rate (min^-1); MIWI and MILI are mouse PIWI proteins and EfPiwi is from a freshwater sponge; tags in brackets are library labels; higher = faster piRNA-guided slicing of the target. Particulars: guide: piRNA #2 5'p-UUAGGUAACCCAGUAGAUCCAGAGGAAUUC; auxiliary factor: 500 nM mouse GTSF1. The method in brief:
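With or without 500 nM GTSF1 partner protein, 1 nM active affinity-purified piRISC carrying one synthetic guide was mixed with 0.1 nM transcribed, DNA-blocked target RNA library in HEPES–potassium acetate buffer at 33 °C for 0–8 or 0–960 min. Uncleaved targets were sequenced and normalised to depth and to weakly complementary targets, three trials were pooled, and k3 was capped at 0.0001 min^-1. The pre-steady-state cleavage rate came from a burst-and-steady-state fit.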
Turning to CUUAAGCUCUUGGAUCUACUGGGUUACCUAA, the “pre-steady-state target cleavage rate” value was 0.147 ± 0.013.
With CUUUUCCUCUGUAUCUACUGGGUUACCUAA the figure was 0.368 ± 0.045; with CUUAACCUCUGGAUCUACUGCCUUACCUAA, 0.0472 ± 0.0092; with CUUAAGGAGAGGAUCUACUGGGUUCCCUAA, 0.00452 ± 0.0036.
Then GAAUUCGUCUGGAUCUACUGGGUUACCUUA, with 0.311 ± 0.07; and CUUAAGGAGUGGAUCUACUGGGUUUCGUAA, with 0.00615 ± 0.0034.
With CAAUUCCUCUGGAUGUACUGGGAUACCUAA the figure was 0.271 ± 0.031; with CUUAAGGACUGGAUCUACAGGGUAACCUAA, 0.013 ± 0.013.
For the sequence CUAUUCCACUGGAUCUACUGGGUAACCUAA, the “pre-steady-state target cleavage rate” value came out at 0.306 ± 0.049.
With CUUAAGGUCUGGAUCUACAGGGAUACCUAA the figure was 0.115 ± 0.016; with CUUAAGGUCUGGAUCUAUUGGGUUACCUAA, 0.157 ± 0.024.
CUUAAGGUCUGGAUCUACUGGGUUGACCUAA: the “pre-steady-state target cleavage rate” value was 0.2 ± 0.029.
With CUUAAGGAGACCUACUACUGGAUUACCUAA the figure was 0.00279 ± 0.0025; with CAAUUCCUCUGGAUCUAGUGGGUUACCAAA, 0.157 ± 0.03; with CUUAUCCUCUGGAACUACUCGGUUACCUAA, 0.104 ± 0.013.
As to CUUAAGGAGUGGAUCUACUGGGUUCCCUAA, the “pre-steady-state target cleavage rate” value amounted to 0.0254 ± 0.0073.
Then CUUAAGGUCUGGAUCUACUGGGUAUACCUAA, with 0.175 ± 0.029; and CAAUUCCUCUGGAUCGACUGGGUUACCUAA, with 0.234 ± 0.045; and CUUAAGGUCUGGAACUUCUGGGUUACCUAA, with 0.0549 ± 0.033.
With CUUAAGGUCUGGUUCUACUGGGUUAGCUAA the figure was 0.0673 ± 0.018.
On to “CUUAAGGAGAGGAUCUACUGGGUUACCUAU [g2:g20:cont:t1U]”, for which the “pre-steady-state target cleavage rate” value is 0.0261 ± 0.0083.
With GAAUUCCACUGGAUCUACUGGGUAACCUAA, the “pre-steady-state target cleavage rate” value amounted to 0.413 ± 0.052.
With CUUAAGGUCAGCAUCUACUGGGUUACCUAA the figure was 0.00553 ± 0.0032; with CUUAACCUCUGGAUCUCCUGGGUUACCUAA, 0.123 ± 0.019.
Then CUUAAGGUCUGGAACUACUGGGUUACCAAA, with 0.0242 ± 0.02; and GAAUUCCUCUGGACUACUGGGUUACCUAA, with 0.275 ± 0.05; and CUAUUCCUCUGGAUCACUGGGUUACCUAA, with 0.0267 ± 0.0074.
With CUAUACGUCUGGAUCUACUGGGUUACCUAA the figure was 0.401 ± 0.045; with CUUAACCUCUCGAUCUACUGGGUUUCCUAA, 0.322 ± 0.038; with GAACUCCUCUGGAUCUACUGGGUUACCUAA, 0.0999 ± 0.031.
With CUUAACCUCUGGAUGUACUGGCUUACCUAA, the “pre-steady-state target cleavage rate” value was 0.0887 ± 0.012.
Then CUUUUCCUCUGGAUCUACUGGGUUACUCUAA, with 0.234 ± 0.037.
Then CUUAAGGAGUGGUUCUACUGGGUUACCAAA, with 0.0064 ± 0.0031; and CAAAUCCUCUGGAUCUACUGGGUUACCAAA, with 0.49 ± 0.072.
With CUUAAGGAGACGAUCUACUGGCGUUACCUAA the figure was 0.0106 ± 0.0039; with CUUAAGGAGACCUAGAUGACGCGUUACCUAA, 0.00385 ± 0.0021.
With CUAUUCCUCUGGAUCAACUGGGUUACGUAA, the “pre-steady-state target cleavage rate” value was 0.441 ± 0.051.
Then CAAUUCCUCUGGAACUUCUGGGUUACCUAA, with 0.413 ± 0.041.
Then CUUAACCUCUGGAUCUACACGGUUACCUAA, with 0.169 ± 0.016; and CUAAUUCCUCUGGAUCUACUGGGUUACCUAA, with 0.284 ± 0.034.
With GAUUUCCUCUGGAUCUACUGGGUUACGUAA the figure was 0.537 ± 0.066; with CAAUUCCUCUGGUUCUACUGGGUUACCAAA, 0.515 ± 0.086.
With CAAUUCCUCAGGAUCUACUGGGAUACCUAA, the “pre-steady-state target cleavage rate” value stood at 0.444 ± 0.05.
Take CUUUUCCUCUGGAAGUACUGGGUUACCUAA: the “pre-steady-state target cleavage rate” value was 0.573 ± 0.035.
With CUUAAGGACUGGAUCUACCGGGUUACCUAA the figure was 0.0324 ± 0.011.
CAAUUCCUCUGGAACAACUGGGUUACCUAA: the “pre-steady-state target cleavage rate” value was determined as 0.596 ± 0.054.
Then CAAUUCCUCAGGAUCUACUGCGUUACCUAA, with 0.674 ± 0.071; and CUUAAGGUCUGGAUGUACUGCGUUACCUAA, with 0.108 ± 0.037.
Turning to CUUUUCCUCUGGAUCUACUGGGUUACGAUA, the “pre-steady-state target cleavage rate” value was determined as 0.224 ± 0.042.
With CUUAACCUCUGGAUCUACUGCGUUAGCUAA the figure was 0.0732 ± 0.027.
Then GAAUUCGUCUGGAUCUACUGGGAUACCUAA, with 0.324 ± 0.048; and CUUAUCCUCUGGAUCUACUGGGUUACCUAAA, with 0.346 ± 0.053.
Then CUUAACCUCUGAUCUACUGGGUUACCUAA, with 0.192 ± 0.02; and CAAUUCCUCUGGAUCUACUCGGAUACCUAA, with 0.00864 ± 0.007.
Take CUUAAGGUCUGGAUCAACUGGGUUAGCUAA: the “pre-steady-state target cleavage rate” value stood at 0.0423 ± 0.014.
Regarding CUUAACGUCUGGAUCUACUGGGUUACCUAA, the “pre-steady-state target cleavage rate” value turned out to be 0.277 ± 0.03.
Then CUUAAGGACUGGAUCUAAUGGGUUACCUAA, with 0.0855 ± 0.029; and CUUAUCCUCUGGAUCUACUGGGUUGACCUAA, with 0.379 ± 0.034.
Take CAAUUCCUCUGGAUCUACUGCCUUACCUAA: the “pre-steady-state target cleavage rate” value is 0.0897 ± 0.018.
With CUUAUCCCUGGAUCUACUGGGUUACCUAA the figure was 0.406 ± 0.031; with CUUAUCCUCUGCUACUACUGGGUUACCUAA, 0.27 ± 0.024.
Then CUUAUCAUCUGGAUCUACUGGGUUACCUAA, with 0.364 ± 0.03; and “CUUAUCCUCUGGAUCUACUGGGUUACCUAG [g2:g26:cont:t1G]”, with 0.386 ± 0.072.
With CAAUUCCUCUGGAUCUACUGGCUUACCUUA, the “pre-steady-state target cleavage rate” value is 0.0592 ± 0.021.
With GAAUUCCUCUGGAUCUACUGGGUCUACCUAA the figure was 0.421 ± 0.045.
Then CUUAUCGUCUGGAUCUACUGGGUUACCAAA, with 0.185 ± 0.048; and CAAUUCCUCUGGAUGUACAGGGUUACCUAA, with 0.431 ± 0.031; and GAAUUCCUCUGGAUCUACUGGGUUCCUAA, with 0.00587 ± 0.0046.
Then CUAUUCCACUGGAUCUACUGGGUUACCAAA, with 0.311 ± 0.056; and CUUAUCCUCUGGAUCUACUGGGUUAGCUAA, with 0.337 ± 0.046; and CUUAAGGAGUGGAUCUACUGGGUUAUCUAA, with 0.0152 ± 0.0056.
As to CUUUUCCUCUGGAUCUACAGGGUUACCAAA, the “pre-steady-state target cleavage rate” value is 0.235 ± 0.025.
Then CUUAUCCUCUGGAUCUAGAGGGUUACCUAA, with 0.0291 ± 0.0072.
With GAAUUCCUCUGGAUGUACUGGCUUACCUAA the figure was 0.0879 ± 0.023; with CAAUUCCUCUGGAUCUAGUGGGUAACCUAA, 0.0654 ± 0.016.
With CUUAAGGUCUGGAUCUACUGGGUACCUAA the figure was below 0.0001.
Regarding CUUUUCCACUGGAUCUACUGGGUUAGCUAA, the “pre-steady-state target cleavage rate” value was 0.155 ± 0.033.
Regarding CAAUUCGCUCUGGAUCUACUGGGUUACCUAA, the “pre-steady-state target cleavage rate” value was 0.202 ± 0.035.
CUUUUCGUCUGGAUCUACUGGCUUACCUAA: the “pre-steady-state target cleavage rate” value came out at 0.0735 ± 0.025.
Then CUUAUCCUCUGGAUCUACUGGGUUACCUCA, with 0.292 ± 0.056; and CUUAACCUCGGGAUCUACUGGGUUACCUAA, with 0.18 ± 0.051; and GAAUUCCUCUGGAUCUACUCGGUUACCUUA, with 0.121 ± 0.034.
Then CAAUUCGUCUGGAUCUACUGGCUUACCUAA, with 0.0887 ± 0.03.
Then CUAUUCCUCUGGAUCUACUGCCUUACCUAA, with 0.0682 ± 0.014; and CUUAAGGUUGGAUCUACUGGGUUACCUAA, with 0.111 ± 0.024; and CUUAACCUCUGGAUCUACUGGGAUACGUAA, with 0.169 ± 0.025.
As for CUUAACCUCUGGAUCUACUGGGUUAACUAA, the “pre-steady-state target cleavage rate” value was determined as 0.326 ± 0.047.
Then GUAUUCCUCUGGAUCUACUCGGUUACCUAA, with 0.0206 ± 0.01; and CUUAAGGUCUGGUUCUACUGGGUAACCUAA, with 0.0364 ± 0.022.
Take CUUAUCCUCUGGAUCAAGUGGGUUACCUAA: the “pre-steady-state target cleavage rate” value amounted to 0.00866 ± 0.0026.
Take CAAUUCUUCUGGAUCUACUGGGUUACCUAA: the “pre-steady-state target cleavage rate” value worked out at 0.514 ± 0.047.
For the sequence GAAUCCCUCUGGAUCUACUGGGUUACCUAA, the “pre-steady-state target cleavage rate” value was determined as 0.26 ± 0.043.

For the origin of these results see the supplement of paper PMC10338343.
